Results taken from PubChem BioAssay AID686979 (National Center for Advancing Translational Sciences (NCATS), 2013).
Among all 420,000 compounds or so, about 50,000 (12%) were called active. Inconclusive means that the source gave no clear call. Such entries were picked first, then a sample of the others. The call rests on the fitted dose curve; in most records, active means well fitted inhibition curve with a large enough effect; inconclusive means small, poorly fitted or top-dose-only effect; inactive means flat fitted curve, though single readings scatter. Potencies of inconclusive entries are left out as doubtful fits.

Experiment: qHTS for Inhibitors of human tyrosyl-DNA phosphodiesterase 1 (TDP1): qHTS in cells in presence of CPT; further: nearly all actives have a fitted effect of over 55% in size
Settings: chicken DT40 Tdp1-/-;hTDP1 cells + 20 nM CPT, ATP luminescence, 48 h; activity change, negative = growth inhibition: at 46.2 µM (top of the series)
Summary of the method: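 Chicken DT40 Tdp1-/- cells complemented with human TDP1, 400 cells/well, exposed to compounds plus 20 nM camptothecin for at least 48 h at 37 C; viability read as ATP content by CellTiter-Glo luminescence.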
On the % scale 0 is the no-effect control and ±100 the full control effect; potency means the concentration at half of the fitted maximal effect; tags describe the fitted curve by direction and shape.

Row | Structure (SMILES) | Potency | activity change, negative = growth inhibition
1 | Cc1ccc(F)cc1NC(=O)Cc1nn(C)c(=O)c2ccccc12 | inconclusive [inhibitor, single point] | 
2 | O=C(Cc1ccc(Cl)cc1)NCCc1c[nH]c2ccccc12 | active: 18.4 µM | 
3 | COc1ccc2sc(N(Cc3cccnc3)C(=O)CCc3ccccc3)nc2c1 | inconclusive [inhibitor, partial curve] | 
4 | COc1ccccc1CN1C[C@@H]2C[C@@H](c3ccc(C)c(C)c3)N3CCC[C@@]23C1=O | active: 14.6 µM | 
5 | Cc1onc(-c2ccccc2)c1C(=O)NNC(=S)NC(=O)c1ccc(F)cc1 | inconclusive [inhibitor, single point] | 
6 | CN(c1ccccc1)c1nc(N)c([N+](=O)[O-])c(N2CCCCC2)n1 | inconclusive [inhibitor, single point] | 
7 | CCN(C(=O)Cn1nc(Cc2ccncc2)c2ccccc2c1=O)c1ccc(OC)cc1 |  | inactive: -13.4%
8 | O=C(NNc1ncccc1-n1cccc1)c1ccc(Cl)cc1 | inconclusive [inhibitor, single point] | 
9 | Cc1ccc(NC(=S)c2ccc3ccccc3n2)c(C)c1 | inconclusive [inhibitor, single point] | 
10 | O=C(Nc1ccc(Cl)cc1)Nc1nnc(SCc2ccccc2)s1 | inconclusive [inhibitor, partial curve, poor fit] | 
11 | O=C(CN(C(=O)CNC(=O)c1cccs1)c1cccc(F)c1)NC1CCCCC1 |  | inactive: 3.13%
12 | O=C(NNc1ccccc1C(F)(F)F)c1sccc1Cl | inconclusive [inhibitor, single point] | 
13 | COc1cc(OC)c2c(c1)OC(c1ccc(OC)c(OC)c1)C(O)C2=O (configuration not stated) | inconclusive [inhibitor, single point] | 
14 | O=C(COC(=O)c1ccccc1[N+](=O)[O-])Nc1nnc(-c2ccccc2)o1 |  | inactive: -10.8%
15 | COc1ccc(C(=O)Nc2ccc(S(=O)(=O)Nc3ncccn3)cc2)cc1OC |  | inactive: -3.93%
16 | Cc1ccc(NC(=O)C2CCN(S(=O)(=O)c3ccc4c(c3)NC(=O)C(C)S4)CC2)cc1Cl (configuration not stated) | active: 1.3 µM | 
17 | Cc1ccc(C(=O)OCc2nc(N)nc(Nc3ccccc3C)n2)cc1 |  | inconclusive: -34.9% [inhibitor]
18 | O=C(CSc1nnnn1-c1ccccc1)NC(=O)Cc1ccccc1 |  | inactive: 1.07%
19 | O=C(CSc1nc(=O)n(Cc2ccncc2)c2c1CCC2)Nc1cccc(F)c1 |  | inactive: -28%
20 | CCc1ccc(NC(=O)CNC(=O)Cn2c(C)cc3ccccc3c2=O)cc1 |  | inactive: -1.17%
21 | Cc1cc(C(=O)N2CCC(Cc3ccccc3)CC2)ccc1[N+](=O)[O-] | inconclusive [inhibitor, single point] | 
22 | COc1cccc(CN(C)C(=O)c2ccc(S(=O)(=O)Nc3ccccc3C)cc2)c1OC |  | inactive: -26.7%
23 | CCOC(=O)N1CCN(C(=O)CSCc2nc(-c3ccccc3F)oc2C)CC1 | inconclusive [inhibitor, single point] | 
24 | O=C(Nc1ccc(Cl)c(Cl)c1)Nc1ccccc1O | inconclusive [inhibitor, single point] | 

Row | Structure (SMILES) | Potency | activity change, negative = growth inhibition
25 | c1ccc2c(NCC3CCCO3)nc(N3CCOCC3)nc2c1 (configuration not stated) |  | inactive: -4.08%
26 | O=C(/C=C/c1cn(-c2ccccc2)nc1-c1cccs1)NCCN1CCOCC1 | inconclusive [inhibitor, single point] | 
27 | CC(C)C(=O)N1CCC1(C)C(=O)NCc1ccc(C(C)(C)C)cc1 (configuration not stated) | inconclusive [inhibitor, single point] | 
28 | O=c1cc(/C=C/c2c(F)cccc2Cl)[nH]c2ccccc12 | inconclusive [inhibitor, single point] | 
29 | Cc1ccc(C)c(N2CCN(c3ccc4cc(S(=O)(=O)N5CCCCC5)ccc4n3)CC2)c1 | inconclusive [inhibitor, partial curve, poor fit] | 
30 | CCN(C(=O)C(NS(=O)(=O)c1ccc(Br)s1)c1ccccc1)c1ccc(C)c(C)c1 (configuration not stated) | inconclusive [inhibitor, single point] | 
31 | O=C(COc1ccc(Br)cc1)Nc1ccc(S(=O)(=O)Nc2ccccn2)cc1 | inconclusive [inhibitor, partial curve] | 
32 | CCOc1ccccc1CNC(=O)CCCC(=O)n1nc(C)c2ccccc21 | inconclusive [inhibitor, single point] | 
33 | CN(C)c1ccc(/C=C2\SC(=O)N(CCc3nnc(N)s3)C2=O)cc1 |  | inactive: -8.33%
34 | COc1ccccc1OCC(=O)OCc1cc(-c2ccco2)on1 |  | inactive: -10.3%
35 | Cc1cc(NC(=O)NC(=O)c2ccccc2NC(=O)CN)ccc1Oc1ncc(Br)cn1 | active: 0.82 µM | 
36 | CC(=O)c1ccc(N2CCC(c3cc(-c4ccc(Cl)cc4Cl)n[nH]3)CC2)c([N+](=O)[O-])c1 | active: 4.11 µM | 
37 | O=c1cc(CSc2nnnn2-c2ccccc2)nc(Nc2ccc(F)cc2)[nH]1 |  | inconclusive: -33.9% [inhibitor]
38 | COC(=O)c1nn(-c2c(C)n(C)n(-c3ccccc3)c2=O)cc1O |  | inactive: -9.68%
39 | COc1ccc(CC(=O)OCC(=O)Nc2ccc(F)cc2)cc1 |  | inactive: -14.1%
40 | CN(C(=O)c1ccoc1)c1ccc2ccccc2c1 | active: 13 µM | 
41 | COc1cccc(NC(=S)NCc2cccs2)c1 | inconclusive [inhibitor, single point] | 
42 | COc1ccc(C2C(C(=O)N3CCN(c4ccccc4)CC3)c3ccccc3C(=O)N2C)cc1OC (configuration not stated) |  | inactive: -2.54%
43 | CN(C(=O)c1cccc(NC(=O)Cc2ccc(NC(=O)C3CCN(S(=O)(=O)c4cccc([N+](=O)[O-])c4)CC3)cc2)c1)C1CCCCC1 | inconclusive [inhibitor, single point] | 
44 | CCCCCCNC(=O)c1cc(-c2ccco2)nc2ccccc12 | inconclusive [inhibitor, single point] | 
45 | Cc1ccc(/S(C)=N/S(=O)(=O)c2ccc(C)cc2)cc1 (configuration not stated) | inconclusive [inhibitor, single point] | 
46 | OCC1(CCCc2ccccc2)CCN(Cc2ccc(F)cc2)CC1 | inconclusive [inhibitor, single point] | 
47 | COc1ccc(C)cc1NC(=O)Cn1cc(S(=O)(=O)N2CCC(C)CC2)c2ccccc2c1=O |  | inactive: -19.7%
48 | O=C(COc1ccc(Cl)cc1Cl)NC1CC1 | inconclusive [inhibitor, single point] | 

Row | Structure (SMILES) | Potency | activity change, negative = growth inhibition
49 | Cc1cc(C)cc(OCC(=O)N2CCC(c3nc4ccccc4o3)CC2)c1 | inconclusive [inhibitor, single point] | 
50 | COc1cccc(C(O)c2nc(-c3cnn(C)c3)cs2)c1 (configuration not stated) | inconclusive [inhibitor, single point] | 
51 | COC(=O)c1ccccc1NC(=O)C(Cc1ccccc1)N1Cc2ccccc2C1=O (configuration not stated) | inconclusive [inhibitor, single point] | 
52 | O=C(Cc1ccc(Cl)cc1)Nc1ccc2oc(-c3ccc(F)cc3)nc2c1 | inconclusive [inhibitor, partial curve] | 
53 | CCCCNC(=O)C(CC)Sc1nc2sc(C(=O)OC)c(C)c2c(=O)n1N (configuration not stated) | inconclusive [inhibitor, single point] | 
54 | COc1ccccc1NC(=O)/C=C/C(N)=O | active: 2.06 µM | 
55 | COC(=O)c1ccc(/C=C2/SC(=S)N(CCC(=O)N3CCOCC3)C2=O)cc1 | active: 16.4 µM | 
56 | COc1ccc(S(=O)(=O)N2CCC(C(=O)N[C@@H](C)C(=O)N3CCCCCC3)CC2)cc1 |  | inactive: -4.08%
57 | CCCC(=O)NC(c1ccccc1Cl)c1c(O)ccc2ccccc12 (configuration not stated) | inconclusive [inhibitor, single point] | 
58 | COc1ccc(C(O)c2ncc(-c3cccc4ccccc34)[nH]2)cc1F (configuration not stated) | inconclusive [inhibitor, single point] | 
59 | COc1ccc(Cl)cc1C(=O)N1CCC2(CC1)CC(=O)c1ccccc1O2 | inconclusive [inhibitor, single point] | 
60 | Nc1c(Cl)ncnc1N/N=C/c1ccccn1 | active: 0.0184 µM | 
61 | CCOc1ccc(NC(=O)c2c(NCc3cc(OC)c(OC)cc3OC)sc3c2CCCC3)cc1 | inconclusive [inhibitor, single point] | 
62 | O=C(O)CSc1nc(-c2ccccc2)nc2c1oc1ccccc12 |  | inactive: 1.63%
63 | CC1CCCC(NC(=O)CN2CCN(Cc3ccc(Cl)cc3)C2=O)C1C (configuration not stated) | inconclusive [inhibitor, single point] | 
64 | COc1cccc(CNC(=O)C(c2ccc(Cl)cc2)C(C)C)c1 (configuration not stated) |  | inactive: -25.6%
65 | NC(COCc1ccccc1)c1csc(Nc2ccc(C(=O)NCCO)cc2)n1 (configuration not stated) | inconclusive [inhibitor, single point] | 
66 | O=C(Nc1ccc(OC(F)F)c(Cl)c1)c1ccccn1 | inconclusive [inhibitor, single point] | 
67 | Cc1ccc2nc(Nc3nc(-c4ccccc4)cc(=O)[nH]3)nc(C)c2c1 | active: 13 µM | 
68 | CN(CC(=O)Nc1ccccc1Br)C(=O)c1ccccc1Sc1ccccc1C#N | inconclusive [inhibitor, single point] | 
69 | COc1ccc(N2CCN(C(=O)c3cccc(Br)c3)CC2)c([N+](=O)[O-])c1 | active: 23.1 µM | 
70 | O=C(C(=O)N1CCC(Cc2ccccc2)CC1)c1cccc(Br)c1 | inconclusive [inhibitor, single point] | 
71 | Cn1cccc1C(=O)NCc1ccc(S(N)(=O)=O)cc1 |  | inactive: 2.48%
72 | COc1cccc(OC)c1-c1cc(CCCc2cc(-c3c(OC)cccc3OC)nc3ccccc23)c2ccccc2n1 | inconclusive [inhibitor, single point] | 
